Some of the results follow.
Key:
Assay in all cases: glycan array binding signal (z-score within array); higher = stronger binding
Conditions in all cases: glycan notation: IUPAC condensed, linker removed
[1] = biological target: Gal(b1-4)GlcNAc(b1-2)[Gal(b1-4)GlcNAc(b1-6)]Man(a1-6)[GlcNAc(b1-4)][Gal(b1-4)GlcNAc(b1-2)Man(a1-3)]Man(b1-4)GlcNAc(b1-4)GlcNAc
In short: (§1)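 The binding signal is a Z-score computed within each array and averaged over linkers. Arrays of the same protein sequence at different concentrations or buffers were also averaged together. Data originate from 3228 arrays in the Consortium for Functional Glycomics database, kept only where the protein sequence was available.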

[2] = biological target: Gal(b1-4)GlcNAc(b1-2)[Gal(b1-4)GlcNAc(b1-6)]Man(a1-6)[GlcNAc(b1-4)][Gal(b1-4)GlcNAc(b1-2)[Gal(b1-4)GlcNAc(b1-4)]Man(a1-3)]Man(b1-4)GlcNAc(b1-4)[Fuc(a1-6)]GlcNAc
In short: as §1

[3] = biological target: Gal(b1-4)GlcNAc(b1-3)Gal(b1-3)GalNAc
In short: as §1

[4] = biological target: Gal(b1-4)GlcNAc(b1-3)Gal(b1-3)GlcNAc
In short: as §1

[5] = biological target: Gal(b1-4)GlcNAc(b1-3)Gal(b1-4)Glc
In short: as §1

[6] = biological target: Gal(b1-4)GlcNAc(b1-3)Gal(b1-4)GlcNAc
In short: as §1

[7] = biological target: Gal(b1-4)GlcNAc(b1-3)Gal(b1-4)GlcNAc(b1-2)Man(a1-3)[Gal(b1-4)GlcNAc(b1-3)Gal(b1-4)GlcNAc(b1-2)Man(a1-6)]Man(b1-4)GlcNAc(b1-4)GlcNAc
In short: as §1

[8] = biological target: Gal(b1-4)GlcNAc(b1-3)Gal(b1-4)GlcNAc(b1-2)Man(a1-3)[Gal(b1-4)GlcNAc(b1-3)Gal(b1-4)GlcNAc(b1-2)Man(a1-6)]Man(b1-4)GlcNAc(b1-4)[Fuc(a1-6)]GlcNAc
In short: as §1

[9] = biological target: Gal(b1-4)GlcNAc(b1-3)Gal(b1-4)GlcNAc(b1-2)[Gal(b1-4)GlcNAc(b1-3)Gal(b1-4)GlcNAc(b1-6)]Man(a1-6)[Gal(b1-4)GlcNAc(b1-3)Gal(b1-4)GlcNAc(b1-2)Man(a1-3)]Man(b1-4)GlcNAc(b1-4)GlcNAc
In short: as §1

[10] = biological target: Gal(b1-4)GlcNAc(b1-3)Gal(b1-4)GlcNAc(b1-2)[Gal(b1-4)GlcNAc(b1-3)Gal(b1-4)GlcNAc(b1-6)]Man(a1-6)[Gal(b1-4)GlcNAc(b1-3)Gal(b1-4)GlcNAc(b1-2)Man(a1-3)]Man(b1-4)GlcNAc(b1-4)[Fuc(a1-6)]GlcNAc
In short: as §1

[11] = biological target: Gal(b1-4)GlcNAc(b1-3)Gal(b1-4)GlcNAc(b1-3)Gal(b1-4)GlcNAc
In short: as §1

[12] = biological target: Gal(b1-4)GlcNAc(b1-3)Gal(b1-4)GlcNAc(b1-3)Gal(b1-4)GlcNAc(b1-2)Man(a1-3)[Gal(b1-4)GlcNAc(b1-3)Gal(b1-4)GlcNAc(b1-3)Gal(b1-4)GlcNAc(b1-2)Man(a1-6)]Man(b1-4)GlcNAc(b1-4)GlcNAc
In short: as §1

[13] = biological target: Gal(b1-4)GlcNAc(b1-3)Gal(b1-4)GlcNAc(b1-3)Gal(b1-4)GlcNAc(b1-2)Man(a1-3)[Gal(b1-4)GlcNAc(b1-3)Gal(b1-4)GlcNAc(b1-3)Gal(b1-4)GlcNAc(b1-2)Man(a1-6)]Man(b1-4)GlcNAc(b1-4)[Fuc(a1-6)]GlcNAc
In short: as §1

[14] = biological target: Gal(b1-4)GlcNAc(b1-3)Gal(b1-4)GlcNAc(b1-3)Gal(b1-4)GlcNAc(b1-2)[Gal(b1-4)GlcNAc(b1-3)Gal(b1-4)GlcNAc(b1-3)Gal(b1-4)GlcNAc(b1-6)]Man(a1-6)[Gal(b1-4)GlcNAc(b1-3)Gal(b1-4)GlcNAc(b1-3)Gal(b1-4)GlcNAc(b1-2)Man(a1-3)]Man(b1-4)GlcNAc(b1-4)[Fuc(a1-6)]GlcNAc
In short: as §1

[15] = biological target: Gal(b1-4)GlcNAc(b1-3)Gal(b1-4)GlcNAc(b1-3)Gal(b1-4)GlcNAc(b1-3)Gal(b1-4)GlcNAc(b1-2)Man(a1-3)[Gal(b1-4)GlcNAc(b1-3)Gal(b1-4)GlcNAc(b1-3)Gal(b1-4)GlcNAc(b1-3)Gal(b1-4)GlcNAc(b1-2)Man(a1-6)]Man(b1-4)GlcNAc(b1-4)GlcNAc
In short: as §1

[16] = biological target: Gal(b1-4)GlcNAc(b1-3)Gal(b1-4)GlcNAc(b1-3)Gal(b1-4)GlcNAc(b1-3)Gal(b1-4)GlcNAc(b1-2)Man(a1-3)[Gal(b1-4)GlcNAc(b1-3)Gal(b1-4)GlcNAc(b1-3)Gal(b1-4)GlcNAc(b1-3)Gal(b1-4)GlcNAc(b1-2)Man(a1-6)]Man(b1-4)GlcNAc(b1-4)[Fuc(a1-6)]GlcNAc
In short: as §1

[17] = biological target: Gal(b1-4)GlcNAc(b1-3)Gal(b1-4)GlcNAc(b1-3)Gal(b1-4)GlcNAc(b1-3)Gal(b1-4)GlcNAc(b1-2)[Gal(b1-4)GlcNAc(b1-3)Gal(b1-4)GlcNAc(b1-3)Gal(b1-4)GlcNAc(b1-3)Gal(b1-4)GlcNAc(b1-6)]Man(a1-6)[Gal(b1-4)GlcNAc(b1-3)Gal(b1-4)GlcNAc(b1-3)Gal(b1-4)GlcNAc(b1-3)Gal(b1-4)GlcNAc(b1-2)Man(a1-3)]Man(b1-4)GlcNAc(b1-4)[Fuc(a1-6)]GlcNAc
In short: as §1

[18] = biological target: Gal(b1-4)GlcNAc(b1-3)Gal(b1-4)GlcNAc(b1-3)Gal(b1-4)GlcNAc(b1-3)Gal(b1-4)GlcNAc(b1-3)Gal(b1-4)GlcNAc(b1-2)Man(a1-3)[Gal(b1-4)GlcNAc(b1-3)Gal(b1-4)GlcNAc(b1-3)Gal(b1-4)GlcNAc(b1-3)Gal(b1-4)GlcNAc(b1-3)Gal(b1-4)GlcNAc(b1-2)Man(a1-6)]Man(b1-4)GlcNAc(b1-4)GlcNAc
In short: as §1

[19] = biological target: Gal(b1-4)GlcNAc(b1-3)Gal(b1-4)GlcNAc(b1-3)Gal(b1-4)GlcNAc(b1-3)Gal(b1-4)GlcNAc(b1-3)Gal(b1-4)GlcNAc(b1-2)Man(a1-3)[Gal(b1-4)GlcNAc(b1-3)Gal(b1-4)GlcNAc(b1-3)Gal(b1-4)GlcNAc(b1-3)Gal(b1-4)GlcNAc(b1-3)Gal(b1-4)GlcNAc(b1-2)Man(a1-6)]Man(b1-4)GlcNAc(b1-4)[Fuc(a1-6)]GlcNAc
In short: as §1

[20] = biological target: Gal(b1-4)GlcNAc(b1-3)Gal(b1-4)GlcNAc(b1-3)Gal(b1-4)GlcNAc(b1-3)Gal(b1-4)GlcNAc(b1-3)Gal(b1-4)GlcNAc(b1-2)[Gal(b1-4)GlcNAc(b1-3)Gal(b1-4)GlcNAc(b1-3)Gal(b1-4)GlcNAc(b1-3)Gal(b1-4)GlcNAc(b1-3)Gal(b1-4)GlcNAc(b1-6)]Man(a1-6)[Gal(b1-4)GlcNAc(b1-3)Gal(b1-4)GlcNAc(b1-3)Gal(b1-4)GlcNAc(b1-3)Gal(b1-4)GlcNAc(b1-3)Gal(b1-4)GlcNAc(b1-2)Man(a1-3)]Man(b1-4)GlcNAc(b1-4)[Fuc(a1-6)]GlcNAc
In short: as §1

[21] = biological target: Gal(b1-4)GlcNAc(b1-3)Gal(b1-4)GlcNAc(b1-3)Gal(b1-4)GlcNAc(b1-3)Gal(b1-4)GlcNAc(b1-3)Gal(b1-4)GlcNAc(b1-3)Gal(b1-4)GlcNAc(b1-2)Man(a1-3)[Gal(b1-4)GlcNAc(b1-3)Gal(b1-4)GlcNAc(b1-3)Gal(b1-4)GlcNAc(b1-3)Gal(b1-4)GlcNAc(b1-3)Gal(b1-4)GlcNAc(b1-3)Gal(b1-4)GlcNAc(b1-2)Man(a1-6)]Man(b1-4)GlcNAc(b1-4)GlcNAc
In short: as §1

[22] = biological target: Gal(b1-4)GlcNAc(b1-3)Gal(b1-4)GlcNAc(b1-3)GalNAc
In short: as §1

[23] = biological target: Gal(b1-4)GlcNAc(b1-3)Gal(b1-4)GlcNAc(b1-3)[Gal(b1-4)GlcNAc(b1-3)Gal(b1-4)GlcNAc(b1-6)]GalNAc
In short: as §1

[24] = biological target: Gal(b1-4)GlcNAc(b1-3)Gal(b1-4)GlcNAc(b1-6)[Gal(b1-3)]GalNAc
In short: as §1

[25] = biological target: Gal(b1-4)GlcNAc(b1-3)Gal(b1-4)[Fuc(a1-3)]GlcNAc(b1-3)Gal(b1-4)[Fuc(a1-3)]GlcNAc
In short: as §1

[26] = biological target: Gal(b1-4)GlcNAc(b1-3)GalNAc
In short: as §1

[27] = biological target: Gal(b1-4)GlcNAc(b1-3)[Fuc(a1-3)GlcNAc(b1-6)]Gal(b1-4)Glc
In short: as §1

[28] = biological target: Gal(b1-4)GlcNAc(b1-3)[Gal(b1-4)GlcNAc(b1-6)]Gal(b1-4)GlcNAc
In short: as §1

[29] = biological target: Gal(b1-4)GlcNAc(b1-3)[GlcNAc(b1-6)]Gal(b1-4)GlcNAc
In short: as §1

[30] = biological target: Gal(b1-4)GlcNAc(b1-6)Gal(b1-4)GlcNAc
In short: as §1

[31] = biological target: Gal(b1-4)GlcNAc(b1-6)GalNAc
In short: as §1

[32] = biological target: Gal(b1-4)GlcNAc(b1-6)[Gal(b1-3)]GalNAc
In short: as §1

[33] = biological target: Gal(b1-4)GlcNAc(b1-6)[Gal(b1-4)GlcNAc(b1-3)]GalNAc
In short: as §1

Gal(b1-4)GlcNAc6P = biological target: Gal(b1-4)GlcNAc6P
In short: as §1

Gal(b1-6)Gal = biological target: Gal(b1-6)Gal
In short: as §1

Gal3S(b1-3)GalNAc = biological target: Gal3S(b1-3)GalNAc
In short: as §1

Gal3S(b1-3)GlcNAc = biological target: Gal3S(b1-3)GlcNAc
In short: as §1

[34] = biological target: Gal3S(b1-3)[Fuc(a1-4)]GlcNAc
In short: as §1

B1: Cohesin-hDC-ASGPR (Homo sapiens) (protein)
chain: LDDLDAVRIKVDTVNAKPGDTVRIPVRFSGIPSKGIANCDFVYSYDPNVLEIIEIEPGDIIVDPNPDKSFDTAVYPDRKIIVFLFAEDSGTGAYAITKDGVFATIVAKVKEGAPNGLSVIKFVEVGGFANNDLVEQKTQFFDGGANVGDTTEPATPTTPVTTPTTTDDLDAASQNSKFQRDLVTLRTDFSNFTSNTVAEIQALTSQGSSLEETIASLKAEVEGFKQERQAGVSELQEHTTQKAHLGHCPHCPSVCVPVHSEMLLRVQQLVQDLKKLTCQVATLNNNASTEGTCCPVNWVEHQDSCYWFSHSGMSWAEAEKYCQLKNAHLVVINSREEQNFVQKYLGSAYTWMGLSDPEGAWKWVDGTDYATGFQNWKPGQPDDWQGHGLGGGEDCAHFHPDGRWNDDVCQRPYHWVCEAGLGQTSQESHHHHHH
glycan array binding signal (z-score) [1]: -0.478 | glycan array binding signal (z-score) [2]: -0.511 | glycan array binding signal (z-score) [3]: -0.502 | glycan array binding signal (z-score) [4]: -0.499 | glycan array binding signal (z-score) [5]: -0.457 | glycan array binding signal (z-score) [6]: -0.46 | glycan array binding signal (z-score) [7]: 0.113 | glycan array binding signal (z-score) [8]: -0.279 | glycan array binding signal (z-score) [9]: 1.87 | glycan array binding signal (z-score) [10]: -0.424 | glycan array binding signal (z-score) [11]: -0.492 | glycan array binding signal (z-score) [12]: -0.325 | glycan array binding signal (z-score) [13]: -0.426 | glycan array binding signal (z-score) [14]: -0.427 | glycan array binding signal (z-score) [15]: -0.386 | glycan array binding signal (z-score) [16]: -0.433 | glycan array binding signal (z-score) [17]: -0.246 | glycan array binding signal (z-score) [18]: -0.419 | glycan array binding signal (z-score) [19]: -0.366 | glycan array binding signal (z-score) [20]: -0.362 | glycan array binding signal (z-score) [21]: -0.398 | glycan array binding signal (z-score) [22]: -0.415 | glycan array binding signal (z-score) [23]: -0.302 | glycan array binding signal (z-score) [24]: -0.39 | glycan array binding signal (z-score) [25]: -0.385 | glycan array binding signal (z-score) [26]: -0.5 | glycan array binding signal (z-score) [27]: -0.486 | glycan array binding signal (z-score) [28]: -0.505 | glycan array binding signal (z-score) [29]: -0.407 | glycan array binding signal (z-score) [30]: -0.462 | glycan array binding signal (z-score) [31]: 1.17 | glycan array binding signal (z-score) [32]: 1.23 | glycan array binding signal (z-score) [33]: -0.468 | glycan array binding signal (z-score) (Gal(b1-4)GlcNAc6P): -0.477 | glycan array binding signal (z-score) (Gal(b1-6)Gal): -0.491 | glycan array binding signal (z-score) (Gal3S(b1-3)GalNAc): -0.05 | glycan array binding signal (z-score) (Gal3S(b1-3)GlcNAc): -0.202 | glycan array binding signal (z-score) [34]: -0.306

— the supplement of paper PMC8728848
